# Data: the supplement of paper PMC8728848
# The list shows a part of the results.
# Tests used:
# Assay in all cases: glycan array binding signal (z-score within array); higher = stronger binding
# Conditions in all cases: glycan notation: IUPAC condensed, linker removed
# GlcNAc(b1-3)Gal(b1-4)Glc = molecular target: GlcNAc(b1-3)Gal(b1-4)Glc
# In short: (§1)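 From the Consortium for Functional Glycomics database, 3228 arrays were curated, keeping only those whose protein sequence was available. Binding is given as a within-array Z-score averaged across arrays sharing a protein sequence and across linkers. Negative Z-scores can be read as non-binding.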
# [1] = molecular target: GlcNAc(b1-3)Gal(b1-4)GlcNAc
# In short: as §1
# [2] = molecular target: GlcNAc(b1-3)Gal(b1-4)GlcNAc(b1-3)Gal(b1-4)GlcNAc
# In short: as §1
# GlcNAc(b1-3)GalNAc = molecular target: GlcNAc(b1-3)GalNAc
# In short: as §1
# GlcNAc(b1-3)Man = molecular target: GlcNAc(b1-3)Man
# In short: as §1
# [3] = molecular target: GlcNAc(b1-3)[GlcNAc(b1-4)][GlcNAc(b1-6)]GlcNAc
# In short: as §1
# [4] = molecular target: GlcNAc(b1-3)[GlcNAc(b1-6)]Gal(b1-4)GlcNAc
# In short: as §1
# [5] = molecular target: GlcNAc(b1-3)[GlcNAc(b1-6)]GalNAc
# In short: as §1
# [6] = molecular target: GlcNAc(b1-4)Gal(b1-4)GlcNAc
# In short: as §1
# GlcNAc(b1-4)GlcNAc = molecular target: GlcNAc(b1-4)GlcNAc
# In short: as §1
# [7] = molecular target: GlcNAc(b1-4)GlcNAc(b1-4)GlcNAc
# In short: as §1
# [8] = molecular target: GlcNAc(b1-4)GlcNAc(b1-4)GlcNAc(b1-4)GlcNAc(b1-4)GlcNAc
# In short: as §1
# [9] = molecular target: GlcNAc(b1-4)GlcNAc(b1-4)GlcNAc(b1-4)GlcNAc(b1-4)GlcNAc(b1-4)GlcNAc
# In short: as §1
# [10] = molecular target: GlcNAc(b1-4)[GlcNAc(b1-6)]GalNAc
# In short: as §1
# [11] = molecular target: GlcNAc(b1-6)Gal(b1-4)GlcNAc
# In short: as §1
# GlcNAc(b1-6)GalNAc = molecular target: GlcNAc(b1-6)GalNAc
# In short: as §1
# GlcNAc3Prop(b1-4)GlcNAc = molecular target: GlcNAc3Prop(b1-4)GlcNAc
# In short: as §1
# [12] = molecular target: GlcNAc6S(b1-3)Gal(b1-4)GlcNAc
# In short: as §1
# Kdn(a2-3)Gal(b1-3)GalNAc = molecular target: Kdn(a2-3)Gal(b1-3)GalNAc
# In short: as §1
# Kdn(a2-3)Gal(b1-3)GlcNAc = molecular target: Kdn(a2-3)Gal(b1-3)GlcNAc
# In short: as §1
# Kdn(a2-3)Gal(b1-4)Glc = molecular target: Kdn(a2-3)Gal(b1-4)Glc
# In short: as §1
# Kdn(a2-3)Gal(b1-4)GlcNAc = molecular target: Kdn(a2-3)Gal(b1-4)GlcNAc
# In short: as §1
# [13] = molecular target: Kdn(a2-3)Gal(b1-4)[Fuc(a1-3)]GlcNAc
# In short: as §1
# Kdn(a2-6)Gal(b1-4)GlcNAc = molecular target: Kdn(a2-6)Gal(b1-4)GlcNAc
# In short: as §1
# [14] = molecular target: Man(a1-2)Man(a1-2)Man(a1-3)Man
# In short: as §1
# [15] = molecular target: Man(a1-2)Man(a1-2)Man(a1-6)[Man(a1-3)]Man
# In short: as §1
# Man(a1-2)Man(a1-3)Man = molecular target: Man(a1-2)Man(a1-3)Man
# In short: as §1
# [16] = molecular target: Man(a1-2)Man(a1-3)[Man(a1-2)Man(a1-6)]Man
# In short: as §1
# [17] = molecular target: Man(a1-2)Man(a1-3)[Man(a1-2)Man(a1-6)]Man(a1-6)[Man(a1-2)Man(a1-2)Man(a1-3)]Man
# In short: as §1
# [18] = molecular target: Man(a1-2)Man(a1-3)[Man(a1-2)Man(a1-6)]Man(a1-6)[Man(a1-2)Man(a1-2)Man(a1-3)]Man(b1-4)GlcNAc(b1-4)GlcNAc
# In short: as §1
# [19] = molecular target: Man(a1-2)Man(a1-3)[Man(a1-6)]Man(a1-6)[Man(a1-2)Man(a1-3)]Man(b1-4)GlcNAc(b1-4)GlcNAc
# In short: as §1
# [20] = molecular target: Man(a1-2)Man(a1-6)[Man(a1-3)]Man(a1-6)[Man(a1-2)Man(a1-2)Man(a1-3)]Man
# In short: as §1
# [21] = molecular target: Man(a1-2)Man(a1-6)[Man(a1-3)]Man(a1-6)[Man(a1-2)Man(a1-2)Man(a1-3)]Man(b1-4)GlcNAc(b1-4)GlcNAc
# In short: as §1
# Man(a1-3)[Man(a1-6)]Man = molecular target: Man(a1-3)[Man(a1-6)]Man
# In short: as §1
# [22] = molecular target: Man(a1-3)[Man(a1-6)]Man(a1-6)[Man(a1-2)Man(a1-3)]Man(b1-4)GlcNAc(b1-4)GlcNAc
# In short: as §1
# [23] = molecular target: Man(a1-3)[Man(a1-6)]Man(a1-6)[Man(a1-3)]Man
# In short: as §1
# [24] = molecular target: Man(a1-3)[Man(a1-6)]Man(a1-6)[Man(a1-3)]Man(b1-4)GlcNAc(b1-4)GlcNAc
# In short: as §1
# [25] = molecular target: Man(a1-3)[Man(a1-6)]Man(b1-4)GlcNAc(b1-4)GlcNAc
# In short: as §1
# Man(a1-6)Man = molecular target: Man(a1-6)Man
# In short: as §1
# Man(b1-4)GlcNAc = molecular target: Man(b1-4)GlcNAc
# In short: as §1
# Neu5Ac(a2-3)Gal = molecular target: Neu5Ac(a2-3)Gal
# In short: as §1
# [26] = molecular target: Neu5Ac(a2-3)Gal(b1-3)GalNAc
# In short: as §1
# [27] = molecular target: Neu5Ac(a2-3)Gal(b1-3)GalNAc(b1-3)Gal(a1-4)Gal(b1-4)Glc
# In short: as §1
# [28] = molecular target: Neu5Ac(a2-3)Gal(b1-3)GalNAc(b1-4)[Neu5Ac(a2-3)]Gal(b1-4)Glc
# In short: as §1
# [29] = molecular target: Neu5Ac(a2-3)Gal(b1-3)GalNAc(b1-4)[Neu5Ac(a2-8)Neu5Ac(a2-3)]Gal(b1-4)Glc
# In short: as §1
# [30] = molecular target: Neu5Ac(a2-3)Gal(b1-3)GalNAc6S
# In short: as §1
# [31] = molecular target: Neu5Ac(a2-3)Gal(b1-3)GlcNAc
# In short: as §1
# [32] = molecular target: Neu5Ac(a2-3)Gal(b1-3)GlcNAc(b1-3)Gal(b1-3)GlcNAc
# In short: as §1
# [33] = molecular target: Neu5Ac(a2-3)Gal(b1-3)GlcNAc(b1-3)Gal(b1-4)GlcNAc
# In short: as §1
# [34] = molecular target: Neu5Ac(a2-3)Gal(b1-3)GlcNAc(b1-3)GalNAc
# In short: as §1
# [35] = molecular target: Neu5Ac(a2-3)Gal(b1-3)GlcNAc6S
# In short: as §1
# [36] = molecular target: Neu5Ac(a2-3)Gal(b1-3)[Fuc(a1-4)]GlcNAc
# In short: as §1
# [37] = molecular target: Neu5Ac(a2-3)Gal(b1-3)[Fuc(a1-4)]GlcNAc(b1-3)Gal(b1-3)[Fuc(a1-4)]GlcNAc
# In short: as §1
# [38] = molecular target: Neu5Ac(a2-3)Gal(b1-3)[Fuc(a1-4)]GlcNAc(b1-3)Gal(b1-4)[Fuc(a1-3)]GlcNAc
# In short: as §1
# [39] = molecular target: Neu5Ac(a2-3)Gal(b1-3)[Neu5Ac(a2-3)Gal(b1-4)]GlcNAc
# In short: as §1
# [40] = molecular target: Neu5Ac(a2-3)Gal(b1-3)[Neu5Ac(a2-6)]GalNAc
# In short: as §1
# Neu5Ac(a2-3)Gal(b1-4)Glc = molecular target: Neu5Ac(a2-3)Gal(b1-4)Glc
# In short: as §1
# [41] = molecular target: Neu5Ac(a2-3)Gal(b1-4)GlcNAc
# In short: as §1
# [42] = molecular target: Neu5Ac(a2-3)Gal(b1-4)GlcNAc(b1-2)Man(a1-3)[GlcNAc(b1-2)Man(b1-4)GlcNAc(b1-2)Man(a1-6)]Man(b1-4)GlcNAc(b1-4)GlcNAc
# In short: as §1
# [43] = molecular target: Neu5Ac(a2-3)Gal(b1-4)GlcNAc(b1-2)Man(a1-3)[Neu5Ac(a2-6)Gal(b1-4)GlcNAc(b1-2)Man(a1-6)]Man(b1-4)GlcNAc(b1-4)GlcNAc
# In short: as §1
# [44] = molecular target: Neu5Ac(a2-3)Gal(b1-4)GlcNAc(b1-3)Gal
# In short: as §1
# [45] = molecular target: Neu5Ac(a2-3)Gal(b1-4)GlcNAc(b1-3)Gal(b1-3)GlcNAc
# In short: as §1
# [46] = molecular target: Neu5Ac(a2-3)Gal(b1-4)GlcNAc(b1-3)Gal(b1-4)GlcNAc
# In short: as §1
# [47] = molecular target: Neu5Ac(a2-3)Gal(b1-4)GlcNAc(b1-3)Gal(b1-4)GlcNAc(b1-3)Gal(b1-4)GlcNAc
# In short: as §1
# [48] = molecular target: Neu5Ac(a2-3)Gal(b1-4)GlcNAc(b1-3)Gal(b1-4)[Fuc(a1-3)]GlcNAc
# In short: as §1
binder,measurement,setting,value
"3FTT (Staphylococcus aureus), Q5HCZ5 (protein) MTEKEKMLAEKWYDANFDQYLINERARAKDICFELNHTRPSATNKRKELIDQLFQTTTDNVSISIPFDTDYGWNVKLGKNVYVNTNCYFMDGGQITIGDNVFIGPNCGFYTATHPLNFHHRNEGFEKAGPIHIGSNTWFGGHVAVLPGVTIGEGSVIGAGSVVTKDIPPHSLAVGNPCKVVRKIDNDLPSETLNDETIK",glycan array binding signal (z-score),GlcNAc(b1-3)Gal(b1-4)Glc,-0.062
same,glycan array binding signal (z-score),[1],-0.025
same,glycan array binding signal (z-score),[2],0.092
same,glycan array binding signal (z-score),GlcNAc(b1-3)GalNAc,-0.241
same,glycan array binding signal (z-score),GlcNAc(b1-3)Man,-0.063
same,glycan array binding signal (z-score),[3],-0.01
same,glycan array binding signal (z-score),[4],-0.075
same,glycan array binding signal (z-score),[5],-0.288
same,glycan array binding signal (z-score),[6],-0.16
same,glycan array binding signal (z-score),GlcNAc(b1-4)GlcNAc,-0.128
same,glycan array binding signal (z-score),[7],-0.157
same,glycan array binding signal (z-score),[8],-0.212
same,glycan array binding signal (z-score),[9],-0.225
same,glycan array binding signal (z-score),[10],-0.378
same,glycan array binding signal (z-score),[11],-0.001
same,glycan array binding signal (z-score),GlcNAc(b1-6)GalNAc,-0.178
same,glycan array binding signal (z-score),GlcNAc3Prop(b1-4)GlcNAc,-0.072
same,glycan array binding signal (z-score),[12],-0.016
same,glycan array binding signal (z-score),Kdn(a2-3)Gal(b1-3)GalNAc,-0.059
same,glycan array binding signal (z-score),Kdn(a2-3)Gal(b1-3)GlcNAc,0.165
same,glycan array binding signal (z-score),Kdn(a2-3)Gal(b1-4)Glc,-0.005
same,glycan array binding signal (z-score),Kdn(a2-3)Gal(b1-4)GlcNAc,-0.201
same,glycan array binding signal (z-score),[13],0.16
same,glycan array binding signal (z-score),Kdn(a2-6)Gal(b1-4)GlcNAc,-0.292
same,glycan array binding signal (z-score),[14],-0.082
same,glycan array binding signal (z-score),[15],-0.073
same,glycan array binding signal (z-score),Man(a1-2)Man(a1-3)Man,0.167
same,glycan array binding signal (z-score),[16],-0.204
same,glycan array binding signal (z-score),[17],-0.089
same,glycan array binding signal (z-score),[18],-0.02
same,glycan array binding signal (z-score),[19],-0.059
same,glycan array binding signal (z-score),[20],0.023
same,glycan array binding signal (z-score),[21],-0.099
same,glycan array binding signal (z-score),Man(a1-3)[Man(a1-6)]Man,-0.136
same,glycan array binding signal (z-score),[22],-0.297
same,glycan array binding signal (z-score),[23],-0.106
same,glycan array binding signal (z-score),[24],0.277
same,glycan array binding signal (z-score),[25],-0.122
same,glycan array binding signal (z-score),Man(a1-6)Man,-0.205
same,glycan array binding signal (z-score),Man(b1-4)GlcNAc,-0.291
same,glycan array binding signal (z-score),Neu5Ac(a2-3)Gal,-0.203
same,glycan array binding signal (z-score),[26],0.041
same,glycan array binding signal (z-score),[27],-0.166
same,glycan array binding signal (z-score),[28],-0.102
same,glycan array binding signal (z-score),[29],0.088
same,glycan array binding signal (z-score),[30],-0.023
same,glycan array binding signal (z-score),[31],-0.112
same,glycan array binding signal (z-score),[32],-0.09
same,glycan array binding signal (z-score),[33],0.055
same,glycan array binding signal (z-score),[34],-0.066
same,glycan array binding signal (z-score),[35],0.151
same,glycan array binding signal (z-score),[36],-0.02
same,glycan array binding signal (z-score),[37],-0.009
same,glycan array binding signal (z-score),[38],-0.089
same,glycan array binding signal (z-score),[39],-0.249
same,glycan array binding signal (z-score),[40],-0.057
same,glycan array binding signal (z-score),Neu5Ac(a2-3)Gal(b1-4)Glc,0.028
same,glycan array binding signal (z-score),[41],-0.101
same,glycan array binding signal (z-score),[42],-0.098
same,glycan array binding signal (z-score),[43],-0.274
same,glycan array binding signal (z-score),[44],0.012
same,glycan array binding signal (z-score),[45],-0.008
same,glycan array binding signal (z-score),[46],-0.265
same,glycan array binding signal (z-score),[47],-0.095
same,glycan array binding signal (z-score),[48],-0.042
